# Data: PubChem BioAssay AID445 (National Center for Advancing Translational Sciences (NCATS), 2006)
# About 40 (0.04%) of roughly 110,000 compounds were called active. The inconclusive results got no clear call from the source; some entries with a clear call stand among them for comparison. The call rests on the fitted dose curve; in most records, active means well fitted curve in the direction sought with a large enough effect in the signal ratio (not every such curve was filed as active); inconclusive means small, poorly fitted or top-dose-only effect, or a change in a side signal; inactive means flat fitted curve, though single readings scatter; the % refers to the signal ratio. Potencies of inconclusive entries are doubtful fits and often do not repeat.
# Assay: IkB Signaling;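 on IkBa stabilization activation: 0% = basal untreated cells and 100% = reference inhibitor full response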
# Conditions: ABC-DLBCL IkBa-CBG/CBR dual luciferase ratio (green luciferase fused to IkBa over red control in OCI-Ly3 lymphoma cells), 4 h; IkBa stabilization activation: at 57.1 µM (top of the series), scaled: untreated 0%, proteasome inhibitor 100% unless noted
# Summary of the method: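 In this assay, an IκBα–CBG68 fusion accumulates when IKK-driven degradation is blocked; native CBR normalizes for cell number. OCI-Ly3 cells were treated 4 h with compound and doxycycline, then green and red light read after Chroma-Glo addition.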
# Potency means the concentration at half of the fitted maximal effect.
Structure (SMILES),IkBa stabilization activation,Potency
O=C(Cn1c(=O)c2ccccc2n(CC(=O)Nc2ccc(Cl)cc2)c1=O)NCCc1ccccc1,inconclusive: 5.79% [signal inhibitor],–
CCOC(=O)c1c(C)[nH]c(CCC(=O)NCCCN2CCN(c3cc(Cl)ccc3C)CC2)c1C,inconclusive: 0.746% [signal inhibitor],–
Cc1c(CCNC(=O)Cc2ccc(F)cc2)sc2nc(-c3ccc(F)cc3)nn12,inconclusive: 2.71% [signal inhibitor],–
c1cncc(CNc2nc(-c3ccc4c(c3)OCO4)nc3ccccc23)c1,"inactive: 0.309% [at 11.4 µM, scaled: untreated 0%, proteasome inhibitor 100%]",–
CCOc1ccc(C(=O)Nc2cccc(OCc3cc(=O)n4ccccc4n3)c2)cc1,inconclusive: 4.55% [signal inhibitor],–
COC(=O)c1cc(COC(=O)c2ccc(OC)c(S(=O)(=O)N3CCCC3)c2)oc1C,inconclusive: 1.93% [signal inhibitor],–
COc1ccc(CNC(=O)Cn2c(=O)oc3cc(S(=O)(=O)N4CCC(C)CC4)ccc32)cc1,inactive,–
Cc1ccc(Cl)cc1-n1c(=O)c2sc3ccccc3c2n(CC(=O)NC2CCCCC2)c1=O,inconclusive: 1.43% [signal inhibitor],–
Cc1cccc(C)c1NC(=O)c1nc(S(C)(=O)=O)ncc1N(Cc1ccc(F)cc1)Cc1ccco1,inconclusive: 8.98% [signal inhibitor],–
COc1cccc(CNC(=O)CN2C(=O)CSc3c2c(C)nn3-c2ccccc2)c1OC,inconclusive: 1.48% [signal inhibitor],–
NC1=NC(c2ccccc2Cl)n2c(nc3ccccc32)N1 (stereo not given),–,"inconclusive: 12.6 µM [signal inhibitor, partial curve]"
Cc1cc(-c2ccc(C)c(S(=O)(=O)Nc3ccccc3C(F)(F)F)c2)on1,inconclusive: 12.9% [signal inhibitor],–
COc1ccc(C(=O)N(Cc2ccc(N(C)C)cc2)Cc2ccco2)cc1Cl,inconclusive: 0.507% [signal inhibitor],–
O=C(O)C(NS(=O)(=O)c1cccc2cccnc12)c1ccccc1 (stereo not given),inactive,–
Cc1ccc(C)n1-c1c(C(=O)NCC(C)c2ccccc2)sc2ncccc12 (stereo not given),inconclusive: 4.46% [signal inhibitor],–
Cc1ccccc1-n1nnnc1SCc1ncc(-c2ccccc2)o1,inconclusive: 4.64% [signal inhibitor],–
CC(C(=O)NCc1ccccc1Cl)n1ccc2cc(S(=O)(=O)N3CCCCC3)ccc21 (stereo not given),inconclusive: 0.561% [signal inhibitor],–
Cc1ccc(-n2ncc(C(=O)NCCCN3CCCCC3)c2C2CCN(C(=O)OC(C)(C)C)CC2)c(C)c1,inconclusive: -0.562% [signal inhibitor],–
Brc1ccc2[nH]c3nc(SCCN4CCOCC4)nnc3c2c1,inactive,–
Cc1[nH]nc2ncc(C(=O)c3ccccc3O)cc12,inconclusive: 0.996% [signal inhibitor],–
CCC1CCCCN1C(=O)COC(=O)c1cc2ccccc2cc1O (stereo not given),inconclusive: 3.01% [signal inhibitor],–
c1nc(N2CCC3(CC2)OCCO3)c2c3c(sc2n1)CCCC3,inconclusive: 0.926% [signal inhibitor],–
Cc1ccc(CNc2oc(-c3ccco3)nc2C#N)cc1,inactive,–
Cc1cccc(Cn2ccn(Cc3ccc(Cl)cc3)c(=O)c2=O)c1,inconclusive: 7.97% [signal inhibitor],–

Structure (SMILES),IkBa stabilization activation,Potency
Brc1ccc2c(c1)c1nc3ccccc3nc1n2CCN1CCOCC1,inactive,–
c1cc2c(cc1C(N1CCNCC1)N1CCNCC1)OCO2,"inactive: 1.62% [at 11.4 µM, scaled: untreated 0%, proteasome inhibitor 100%]",–
O=C(CSc1nc(-c2cccc(Cl)c2)nc2cc(=O)[nH]n12)Nc1ccccc1,inconclusive: 2.2% [signal inhibitor],–
CCN(CC)C(=O)c1sc(NC(=O)c2nc3ncccn3n2)c(C(=O)OC)c1C,inconclusive: 3.88% [signal activator],–
Cc1occc1C(=O)N1CCN(C(c2ccccc2)c2ccccc2)CC1,inconclusive: 1.96% [signal inhibitor],–
Oc1ccc(Nc2nc3ccccc3n3cnnc23)cc1,inactive,–
C[C@@H](CN1c2ccccc2Sc2ccccc21)N(C)C,inactive,–
Cc1oc2cc3c(C(=O)N4CCCCC4)c(C)oc3cc2c1C(=O)N1CCCCC1,inconclusive: 4.17% [signal inhibitor],–
Cc1ccc(C2c3c(-c4cc(C)ccc4O)n[nH]c3C(=O)N2Cc2ccco2)cc1 (stereo not given),inconclusive: -3.25% [signal inhibitor],–
COc1cccc(Cn2c(=O)n(CC3CCC(C(=O)N4CCCCC4)CC3)c(=O)c3sccc32)c1 (stereo not given),inconclusive: 11.2% [signal inhibitor],–
COc1ccccc1N1CCN(C(=O)C2CCN(S(=O)(=O)c3c(C)noc3/C=C/c3ccc(C)cc3)CC2)CC1,inconclusive: 1.78% [signal inhibitor],–
Cc1ccc(C)n1NC(=O)c1cccs1,inconclusive: 6.98% [signal inhibitor],–
Cc1cc(C)cc(-n2c(SCC(=O)NCc3ccco3)nc3c([nH]c4ccccc43)c2=O)c1,inactive,–
COc1cccc(NC(=O)CSc2nnc(COc3ccc(Cl)cc3)o2)c1,inconclusive: 11.2% [signal inhibitor],–
Clc1ccccc1-c1cncnc1NCc1cccs1,"inactive: 1.47% [at 11.4 µM, scaled: untreated 0%, proteasome inhibitor 100%]",–
CCOC(=O)c1cc(-c2ccc(C)cc2)n(CCC(=O)Nc2nc3c(C)cccc3s2)c1C,inconclusive: -1.17% [signal inhibitor],–
COc1ccc(-c2ccc(-c3noc(-c4ccccc4)n3)c(OC)n2)cc1,inconclusive: 15% [signal inhibitor],–
CSc1nc(SC)c2c3c(oc2n1)COC(C)(C)C3,inactive,–
O=C(Nc1cc(C(F)(F)F)ccc1N1CCOCC1)c1cccnc1,inactive,–
Cc1ccc2c(c1)c(=O)c1ccccc1n2CCCC(=O)Nc1ccc(C)c(F)c1,–,inconclusive: 10 µM [signal inhibitor]
CCN(CC)CC[n+]1ccc2c(C)c3[nH]c4ccccc4c3c(C)c2c1,"inactive: 1.88% [at 11.4 µM, scaled: untreated 0%, proteasome inhibitor 100%]",–
CCCCCC(=O)N1c2ccccc2C(C)(c2ccccc2)CC1(C)C (stereo not given),inconclusive: 10.6% [signal inhibitor],–
CCc1nnc(NC(=O)c2ccc(S(=O)(=O)N(CC)Cc3ccccc3)cc2)o1,inactive,–
Clc1ccc(Cn2ncc3c(N4CCCC4)ncnc32)cc1,inactive,–

Structure (SMILES),IkBa stabilization activation,Potency
COc1ccc(Cn2c(C(=O)O)c(CNCC(C)c3ccccc3)c3ccc(OC)cc32)cc1 (stereo not given),inconclusive: 2.3% [signal inhibitor],–
Cc1ccc(C)c(N2CCN(C(=O)Nc3cn(CC(C)C)c(=O)c4ccccc34)CC2)c1,inconclusive: -2.59% [signal inhibitor],–
CCN(CC)CCn1c(NCc2ccc(OC)cc2)nc2ccccc21,inactive,–
O=c1c2ccccc2nc(SCc2cccc(F)c2)n1Cc1ccco1,inconclusive: 5.68% [signal inhibitor],–
Cc1cccc(N2CCN(S(=O)(=O)c3ccc4c(c3)C(C(C)C)C(=O)N4)CC2)c1C (stereo not given),inconclusive: -0.287% [signal inhibitor],–
Cc1ccc(-c2nnc(SCC(=O)c3ccc(Cl)cc3)n2-c2ccccc2)cc1,inactive,–
COc1cccc(CN2CCCN(CC(=O)Nc3ccc4c(c3)OCCO4)S2(=O)=O)c1,inconclusive: 4.13% [signal inhibitor],–
Cc1nc2nc(NC(=O)c3ccc(C(C)(C)C)cc3)[nH]n2c(=O)c1Cl,inconclusive: 2.34% [signal inhibitor],–
Cc1ccccc1N=C1NC(=O)CS1,inactive,–
Cc1oc(-c2ccccc2F)nc1CSCC(=O)N1CCN(c2ccccc2)CC1,inconclusive: 3.77% [signal inhibitor],–
CC(=O)n1nc(-c2ccco2)nc1SCc1ccccc1,inactive,–
c1ccc(N(c2ccccc2)c2nc(-n3ccnc3)nc(-n3ccnc3)n2)cc1,inconclusive: 6.86% [signal inhibitor],–
O=C(Nc1cccc(O)c1)c1cc2nc(-c3ccc(Br)cc3)cc(C(F)(F)F)n2n1,inconclusive: -0.682% [signal inhibitor],–
COC(=O)CN(n1cnnc1)S(=O)(=O)c1ccccc1,inconclusive: 7.5% [signal activator],–
COc1ccc(N2CCN(C(=O)CSc3c4c(nc5ccc(Cl)cc35)CCCC4)CC2)cc1,inconclusive: 7.85% [signal inhibitor],–
COc1ccccc1-c1ccc(C(=O)O)o1,inconclusive: 11.9% [signal inhibitor],–
Cc1ccccc1CNc1nc(N(C)C)nc2c1cnn2C,inconclusive: 1.29% [signal inhibitor],–
c1coc(CNc2ncnc3sc4c(c23)CCCCC4)c1,inactive,–
Cc1oc(-c2ccccc2F)nc1CS(=O)(=O)CC(=O)N1CCN(Cc2ccccc2)CC1,inactive,–
O=c1c(-c2ccccc2)nc2cnc(N3CCOCC3)nc2n1CCc1ccccc1,"inactive: -0.275% [at 11.4 µM, scaled: untreated 0%, proteasome inhibitor 100%]",–
Cc1ccc(NC(=O)C2CCN(S(=O)(=O)c3ccc4[nH]c(=O)ccc4c3)CC2)cc1C,inconclusive: 0.624% [signal inhibitor],–
CCOc1ccc(CCNC(=O)Cn2c(-c3cccs3)cc3cc(F)ccc32)cc1OCC,inconclusive: 2.48% [signal inhibitor],–
